The text below walks through data of the supplement of paper PMC9135407.

“And” between values parts separate entries of the source, which are not always exact repeats. Equal values may be shown once. Where a name gives a salt, the structure may show the parent alone. Hit rate of the full screen: of about 5,800 compounds, about 620 (11%) showed activity.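 Rule for the calls: active = score above a cut-off or among the top three wells of a plate; in these data no inactive exceeds 0.85.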 This is a selection; strong and weak results do not stand in their true shares.

The subject of the test is primary human hepatic stellate cells (donor 1). The test is described as follows: scaled lipid accumulation score (0 = DMSO-like, 1 = nortriptyline-like); higher = stronger HSC inactivation (lipid re-accumulation), active = hit call of the paper. Particulars: 48 h.
Setting [1] is: library stock concentration: 10 mM.
[2] abbreviates: library stock concentration: 3.33 mM.
Setting [3] is: library stock concentration: 6.2 mM.
Setting [4] is: library stock concentration: 1 mM.
Setting [5] is: library stock concentration: 80 uM.
[6] abbreviates: library stock concentration: 400 uM.
Setting [7] is: library stock concentration: 2 mM.

In the case of `O=C(c1ccc(F)cc1)C1CCN(CCn2c(=S)[nH]c3ccccc3c2=O)CC1` [Altanserin hydrochloride], under setting [1], the “scaled lipid accumulation score” value was inactive: 0.451.

Take `O=C(c1ccc(F)cc1)C1CCN(CCn2c(=S)[nH]c3ccccc3c2=O)CC1` [Altanserin]: under setting [1], the “scaled lipid accumulation score” value was inactive: 0.491.

As to `O=C(O)Cn1nnc(-c2cc(N3CCC(Oc4cc(F)ccc4Br)CC3)no2)n1`, the “scaled lipid accumulation score” value is inactive: ≤ 0 under setting [2] and inactive: ≤ 0 under setting [1].

For `OCCc1ccccc1` [Phenylethyl alcohol], the “scaled lipid accumulation score” value (library stock concentration: 16.4 mM) was inactive: ≤ 0.

As for `Clc1ccc(C(c2ccccc2Cl)C(Cl)Cl)cc1` (stereo not given) [1-(2-Chlorophenyl)-1-(4-chlorophenyl)-2,2-dichloroethane], the “scaled lipid accumulation score” value under setting [1] was inactive: 0.387.

In the case of `Clc1ccc(C(c2ccccc2Cl)C(Cl)Cl)cc1` (stereo not given) [Mitotane], the “scaled lipid accumulation score” value is inactive: ≤ 0 under setting [2]; inactive: 0.067 under setting [3]; inactive: 0.479 and inactive: 0.147 under setting [1].

In the case of `O=C1O[C@H]([C@@H](O)CO)C(O)=C1O` [Vitamin C], the “scaled lipid accumulation score” value by setting is: under setting [2], inactive: 0.026; under setting [1], inactive: ≤ 0.

As for `O=C1O[C@H]([C@@H](O)CO)C(O)=C1O` [Ascorbic acid], the “scaled lipid accumulation score” value is inactive: 0.027. Also, the “scaled lipid accumulation score” value under setting [1] is inactive: 0.006.

As to `Cc1cccc(C)c1OCC(=O)N[C@@H](Cc1ccccc1)[C@@H](O)C[C@H](Cc1ccccc1)NC(=O)[C@H](C(C)C)N1CCCNC1=O` [Lopinavir], the “scaled lipid accumulation score” value is, setting by setting: under setting [2], inactive: ≤ 0; under setting [1], inactive: ≤ 0.

For the molecule `CCn1c2ccccc2c2cc(CNC)ccc21.Cl`, under setting [1], the “scaled lipid accumulation score” value is active: 0.872.

For the molecule `Cc1ccc(NC(=O)c2ccc(CN3CCN(C)CC3)cc2)cc1Nc1nc(-c2cccnc2)cs1` [Masitinib], the “scaled lipid accumulation score” value under setting [1] is active: 1.07.

As for `COc1cc(CNC(=O)CCCCCCC(C)C)ccc1O` [Dihydrocapsaicin], the “scaled lipid accumulation score” value reads like this: under setting [4], inactive: 0.003; under setting [1], inactive: 0.27.

`N#CC[C@H](C1CCCC1)n1cc(-c2ncnc3[nH]ccc23)cn1`: the “scaled lipid accumulation score” value is inactive: 0.03 under setting [5]; inactive: ≤ -0.009 under setting [6]; inactive: ≤ -0.009 under setting [7]; inactive: ≤ 0 under setting [2]; inactive: ≤ 0 and inactive: 0.092 and inactive: 0.075 under setting [1].

For the molecule `N#CC[C@H](C1CCCC1)n1cc(-c2ncnc3[nH]ccc23)cn1` [S-Ruxolitinib], the “scaled lipid accumulation score” value was inactive: 0.036 under setting [5], inactive: ≤ 0 under setting [6], inactive: 0.064 under setting [7] and inactive: ≤ 0 under setting [1].

With `O=[N+]([O-])c1ccc(O)c2ncccc12`, under setting [1], the “scaled lipid accumulation score” value was inactive: 0.08.

`CCCc1nn(C)c2c(=O)[nH]c(-c3cc(S(=O)(=O)N4CCN(C)CC4)ccc3OCC)nc12` [Sildenafil citrate salt]: the “scaled lipid accumulation score” value under setting [1] was inactive: 0.592.

As for `CCCc1nn(C)c2c(=O)[nH]c(-c3cc(S(=O)(=O)N4CCN(C)CC4)ccc3OCC)nc12` [Sildenafil], the “scaled lipid accumulation score” value under setting [1] is inactive: ≤ -0.027.

Consider `CCCc1nn(C)c2c(=O)[nH]c(-c3cc(S(=O)(=O)N4CCN(C)CC4)ccc3OCC)nc12` [Sildenafil Citrate], for which the “scaled lipid accumulation score” value is, setting by setting: under setting [2], inactive: 0.035; under setting [1], inactive: ≤ 0.

For `NNC(=O)c1ccncc1.Nc1ccc(C(=O)O)c(O)c1` [Pasiniazid], the “scaled lipid accumulation score” value under setting [1] is inactive: ≤ -0.027.

For `CN(C[C@@H]1COCCO1)S(=O)(=O)Nc1ccc2ccc3ncc(-c4cnn(C)c4)cc3c(=O)c2c1`, the “scaled lipid accumulation score” value was inactive: ≤ 0 under setting [2] and inactive: ≤ 0 under setting [1].

For the molecule `CC(O)(CC(=O)O)CC(=O)O`, the “scaled lipid accumulation score” value under setting [1] is inactive: 0.023.

For `C[C@@H]1CN(c2c(F)c(F)c3c(=O)c(C(=O)O)cn(C4CC4)c3c2F)C[C@H](C)N1`, the “scaled lipid accumulation score” value under setting [1] was inactive: ≤ 0.

Regarding `CCCCS(=N)(=O)CCC(N)C(=O)O` [L-Buthionine-sulfoximine], the “scaled lipid accumulation score” value under setting [1] was inactive: 0.065.

As for `O=C(CSc1nc2c(c(=O)n1-c1ccccc1)SCC2)Nc1ccc(-c2ccccc2)cn1`, the “scaled lipid accumulation score” value is inactive: ≤ -0.009 under setting [2] and inactive: ≤ 0 under setting [1].

With `COc1cccc(OC)c1OCCNCC1CSc2ccccc2O1` (stereo not given) [Benoxathian hydrochloride], the “scaled lipid accumulation score” value under setting [1] was inactive: 0.629.

Turning to `CCC(C)(C)C(=O)O[C@H]1C[C@@H](C)C=C2C=C[C@H](C)[C@H](CC[C@@H]3C[C@@H](O)CC(=O)O3)[C@H]21` [Simvastatin], the “scaled lipid accumulation score” value was inactive: 0.214. Besides, the “scaled lipid accumulation score” value under setting [2] was inactive: 0.271. Moreover, the “scaled lipid accumulation score” value (library stock concentration: 4.8 mM) is inactive: 0.213 and inactive: 0.218.

In the case of `CCOC(=O)CC(=O)N1CCSC1COc1ccccc1OC` (stereo not given), under setting [1], the “scaled lipid accumulation score” value is inactive: ≤ 0.

As to `CCOC(=O)CC(=O)N1CCSC1COc1ccccc1OC` (stereo not given) [Moguisteine], the “scaled lipid accumulation score” value is inactive: ≤ 0 under setting [2] and inactive: ≤ 0 under setting [1].

As to `CC(=O)Oc1ccc(C(c2ccc(OC(C)=O)cc2)c2ccccn2)cc1` [Bisacodyl], the “scaled lipid accumulation score” value was inactive: 0.074. In addition, the “scaled lipid accumulation score” value under setting [2] was inactive: ≤ 0. Further, the “scaled lipid accumulation score” value under setting [1] was inactive: ≤ -0.001 and inactive: ≤ 0.

Take `N=c1nc(N2CCCCC2)cc(N)n1O` [Minoxidil]: under setting [1], the “scaled lipid accumulation score” value was inactive: ≤ -0.055.

For the molecule `CN(C)CCOc1ccc(C(=C(CCCl)c2ccccc2)c2ccccc2)cc1.O=C(O)CC(O)(CC(=O)O)C(=O)O` [Toremifene Citrate], under setting [1], the “scaled lipid accumulation score” value was active: 1.23.

`CC(C)c1cnn2c(NCc3ccccc3)cc(NCCCCCCN)nc12`: the “scaled lipid accumulation score” value was inactive: ≤ -0.016 under setting [5]; inactive: ≤ -0.016 under setting [6]; inactive: ≤ -0.016 under setting [7]; inactive: ≤ 0 under setting [2]; inactive: ≤ 0 and inactive: ≤ -0.016 under setting [1].

With `CCc1nn(CCCN2CCN(c3cccc(Cl)c3)CC2)c(=O)n1CCOc1ccccc1` [Nefazodone], the “scaled lipid accumulation score” value under setting [1] is inactive: 0.241.

Turning to `CCc1nn(CCCN2CCN(c3cccc(Cl)c3)CC2)c(=O)n1CCOc1ccccc1` [Nefazodone hydrochloride], under setting [1], the “scaled lipid accumulation score” value is inactive: 0.343.

Take `CCc1nn(CCCN2CCN(c3cccc(Cl)c3)CC2)c(=O)n1CCOc1ccccc1`: the “scaled lipid accumulation score” value under setting [1] is inactive: 0.568.

On to `NC1CONC1=O` (racemic) [DL-Cycloserine], for which the “scaled lipid accumulation score” value under setting [1] is inactive: ≤ 0.

As to `CCCCC[C@H](O)/C=C/[C@H]1C(=O)C[C@H](O)[C@@H]1C/C=C\CCCC(=O)OC` [Prostaglandin D2 methyl ester], under setting [4], the “scaled lipid accumulation score” value is inactive: ≤ 0.

`CNCCCCOc1ccccc1Cc1ccccc1.Cl` [Bifemelane hydrochloride]: the “scaled lipid accumulation score” value under setting [1] is active: 1.41.

Regarding `CCCNC(C)(C)COC(=O)c1ccccc1` [Meprylcaine hydrochloride], the “scaled lipid accumulation score” value was inactive: ≤ 0.

On to `OC[C@H]1NC[C@@H](O)[C@@H]1O` [1,4-Dideoxy-1,4-imino-D-arabinitol], for which the “scaled lipid accumulation score” value under setting [1] is inactive: ≤ -0.07.

Take `CC(C)[C@H](NC(=O)OCc1ccccc1)C(=O)N[C@H](C=O)Cc1ccccc1`: the “scaled lipid accumulation score” value under setting [1] is inactive: 0.085.

Regarding `c1cc(OCCN2CCCCC2)cc(-c2n[nH]c3ccc(-c4nnc[nH]4)cc23)c1`, the “scaled lipid accumulation score” value is, setting by setting: under setting [5], inactive: ≤ -0.016; under setting [6], inactive: ≤ -0.016 and inactive: ≤ -0.005; under setting [7], inactive: ≤ -0.016 and inactive: 0.022.

For the molecule `C[N+](C)(CCOc1ccccc1)Cc1ccccc1.O=C([O-])c1cc2ccccc2cc1O` [Bephenium hydroxynaphthoate], the “scaled lipid accumulation score” value was inactive: ≤ 0.

For the molecule `Cc1nc2c([nH]1)c(=O)n(C)c(=O)n2Cc1ccco1` [Furafylline], the “scaled lipid accumulation score” value runs as follows: (library stock concentration: 7.7 mM) inactive: ≤ -0.006; under setting [1], inactive: ≤ -0.07.

Take `CCC(C)C1OC2(CCC1C)CC1CC(CC=C(C)C(OC3CC(OC)C(OC4CC(OC)C(O)C(C)O4)C(C)O3)C(C)C=CC=C3COC4C(O)C(C)=CC(C(=O)O1)C34O)O2` (stereo not given) [Ivermectin]: the “scaled lipid accumulation score” value by setting is: under setting [2], inactive: 0.007; under setting [1], inactive: 0.198.

`CC(NCCc1ccc(O)cc1)C(O)c1ccc(O)cc1` (stereo not given) [Ritodrine HCl]: the “scaled lipid accumulation score” value runs as follows: under setting [2], inactive: ≤ 0; under setting [1], inactive: ≤ 0.

`CC(NCCc1ccc(O)cc1)C(O)c1ccc(O)cc1` (stereo not given) [Ritodrine hydrochloride]: the “scaled lipid accumulation score” value was inactive: ≤ 0. Also, the “scaled lipid accumulation score” value under setting [3] is inactive: ≤ 0. For the same molecule, the “scaled lipid accumulation score” value under setting [1] is inactive: ≤ 0.

For `CC(C)(O)CC(=O)NCCn1ccc2ncnc(Nc3ccc(Oc4cccc(C(F)(F)F)c4)c(Cl)c3)c21`, the “scaled lipid accumulation score” value was inactive: ≤ 0 under setting [2] and inactive: 0.302 under setting [1].

`CC(=O)Nc1ccc(OC(C)=O)cc1`: under setting [1], the “scaled lipid accumulation score” value is inactive: ≤ 0.

Regarding `NC1CCN(c2c(F)cc3c(=O)c(C(=O)O)cn(C4CC4)c3c2Cl)C1` (stereo not given), the “scaled lipid accumulation score” value under setting [1] was inactive: ≤ 0.

As to `CCC1(C)CC(=O)NC1=O` (stereo not given) [Ethosuximide], the “scaled lipid accumulation score” value is inactive: ≤ 0. The “scaled lipid accumulation score” value under setting [1] was inactive: ≤ -0.07 and inactive: ≤ 0. Further, for the setting “library stock concentration: 14.2 mM”, the “scaled lipid accumulation score” value is inactive: ≤ 0.

Take `CCN1C(=O)C=CC1=O` [N-Ethylmaleimide]: the “scaled lipid accumulation score” value under setting [1] was inactive: 0.37.

For `O=C(Nc1c[nH]nc1-c1nc2ccc(CN3CCOCC3)cc2[nH]1)NC1CC1`, the “scaled lipid accumulation score” value under setting [6] was active: 0.877.

With `O=C(NC(Cc1cc(=O)[nH]c2ccccc12)C(=O)O)c1ccc(Cl)cc1` (stereo not given) [Rebamipide], the “scaled lipid accumulation score” value reads like this: under setting [2], inactive: ≤ 0; (library stock concentration: 5.4 mM) inactive: ≤ 0; under setting [1], inactive: ≤ 0 and inactive: 0.058.

Take `C[N+](C)(C)CCOC(N)=O` [Carbachol]: the “scaled lipid accumulation score” value was inactive: ≤ 0. In addition, the “scaled lipid accumulation score” value under setting [1] was inactive: ≤ 0 and inactive: 0.253. Moreover, the “scaled lipid accumulation score” value (library stock concentration: 11 mM) is inactive: ≤ -0.001.

For the molecule `CC(C)c1cc(C(C)C)c(CC(=O)NS(=O)(=O)Oc2c(C(C)C)cccc2C(C)C)c(C(C)C)c1` [Avasimibe], the “scaled lipid accumulation score” value under setting [2] is inactive: ≤ 0 and the “scaled lipid accumulation score” value under setting [1] is inactive: ≤ 0.

On to `O=C(NNc1nc2cc(F)ccc2n2cccc12)c1cnccn1`, for which the “scaled lipid accumulation score” value reads like this: under setting [2], inactive: ≤ -0.009; under setting [1], inactive: 0.466.

Take `CC(C)(C)NC[C@H](O)COc1cccc2c1CCCC2=O` [Levobunolol hydrochloride]: the “scaled lipid accumulation score” value (library stock concentration: 6.1 mM) was inactive: ≤ 0.

Regarding `CC(C)(C)NC[C@H](O)COc1cccc2c1CCCC2=O` [(-) -Levobunolol hydrochloride], the “scaled lipid accumulation score” value was inactive: ≤ 0.

For `Nc1ncn(C2OC(CO)C(O)C2O)c(=O)n1` (stereo not given) [Azacytidine-5], the “scaled lipid accumulation score” value was inactive: ≤ 0.

For `COc1ccc(-c2oc3cc(OC)ccc3c2C(=O)c2ccc(C#N)cc2)cc1`, under setting [1], the “scaled lipid accumulation score” value was inactive: ≤ 0.

`COC(=O)/C=C/C(=O)OC`: under setting [1], the “scaled lipid accumulation score” value was inactive: ≤ 0.

With `COC(=O)/C=C/C(=O)OC` [Dimethyl Fumarate], the “scaled lipid accumulation score” value under setting [2] was inactive: 0.015 and the “scaled lipid accumulation score” value under setting [1] is inactive: ≤ 0.

Take `CCOC(=O)C1=C(C)NC(C)=C(C(=O)OC)C1c1cccc(Cl)c1Cl` (stereo not given) [Felodipine]: the “scaled lipid accumulation score” value is inactive: 0.05. Besides, under setting [2], the “scaled lipid accumulation score” value was inactive: ≤ 0. Besides, under “library stock concentration: 5.2 mM”, the “scaled lipid accumulation score” value was inactive: 0.028. Under setting [1], the “scaled lipid accumulation score” value was inactive: ≤ 0.
